# Test results published in PubChem BioAssay AID720507 (National Center for Advancing Translational Sciences (NCATS), 2013).
# Out of some 2,300 compounds screened, about 140 (6.1%) were called active. Inconclusive means that the source gave no clear call. Such entries were picked first, then a sample of the others. The call rests on the fitted dose curve; in most records, active means well fitted activation curve with a large enough effect; inconclusive means small, poorly fitted or top-dose-only effect; inactive means flat fitted curve, though single readings scatter. No potency is given beside an inconclusive call; the fits are too rough.
# Target: D(2) dopamine receptor (Homo sapiens) (UniProt P14416)
# Test: qHTS of D3 Dopamine Receptor Agonist: D2 Dopamine Receptor B-arrestin Agonist Counterscreen; further: nearly all actives have a fitted effect of over 70% in size; on activation: % of control where 0% means no effect
# Settings: DiscoveRx PathHunter D2 beta-arrestin, luminescence, 90 min; series mostly up to 76.9 µM; activation: at the top concentration
# Method in brief: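 Cells were seeded and left to attach overnight at 37 deg C, then stimulated with compounds in DMSO for 90 minutes. Chemiluminescent detection reagent was added and the signal read after 1 hour at ambient temperature.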
# Potency means the concentration at half of the fitted maximal effect; tags describe the fitted curve by direction and shape.
# UniProt P14416, sequence (P14416 whole entry, looked up): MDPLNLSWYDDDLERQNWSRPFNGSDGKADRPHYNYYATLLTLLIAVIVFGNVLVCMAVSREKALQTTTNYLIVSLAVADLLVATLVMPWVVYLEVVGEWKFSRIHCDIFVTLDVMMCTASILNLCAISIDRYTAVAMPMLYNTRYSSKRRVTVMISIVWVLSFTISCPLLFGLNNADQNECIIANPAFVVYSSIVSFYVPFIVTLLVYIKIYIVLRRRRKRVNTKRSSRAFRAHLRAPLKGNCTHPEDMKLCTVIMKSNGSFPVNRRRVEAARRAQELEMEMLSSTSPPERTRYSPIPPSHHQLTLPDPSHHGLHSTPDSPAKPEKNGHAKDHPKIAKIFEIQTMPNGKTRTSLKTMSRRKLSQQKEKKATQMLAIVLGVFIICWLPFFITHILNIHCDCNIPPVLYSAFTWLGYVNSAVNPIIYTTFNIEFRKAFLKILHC
Structure (SMILES),Potency,activation
O=C(CN1CCN(c2ccccc2)CC1)Nc1ccc(-n2cnnn2)cc1,"inconclusive [activator, partial curve, poor fit]",
Fc1ccccc1N1CCN(C2CCCN(Cc3ccccc3C(F)(F)F)C2)CC1 (stereo not drawn),,inactive: 21.3%
O=C(Nc1ccccc1C(F)(F)F)C(O)(c1ccccc1)C1CCCCC1 (stereo not drawn),,inactive: -2.41%
COc1ccc(CN2CCN(c3ccccn3)CC2)c(OC)c1C,"inconclusive [activator, partial curve, poor fit]",
O=C(NCCN1CCN(c2ccccc2F)CC1)c1ccc2nc3ccccc3c(=O)n2c1,"inconclusive [activator, full curve]",
COc1ccc(NS(=O)(=O)c2cccc(C(=O)N3CCC3)c2)cc1,,inactive: -5.02%
OC(COCc1ccccc1)CN1CCN(c2ccccc2)CC1 (stereo not drawn),"inconclusive [activator, partial curve]",
CCc1noc(C)c1C(=O)NNC(=O)c1cc(OC)cc(OC)c1,,inactive: -3.6%
CN1CCc2c(sc(NC(=O)Cc3ccccc3)c2C#N)C1,"inconclusive [activator, full curve]",
Cc1cccc(C)c1OCC(O)CN1CCN(c2ccccn2)CC1 (stereo not drawn),active: 5.01 µM,
NC(=O)c1ccc(NC(=O)CN2CCN(c3ccccc3)CC2)cc1,"inconclusive [activator, full curve]",
O=C(CCN1CCN(c2ccccc2F)CC1)Nc1ccccc1F,"inconclusive [activator, partial curve]",
O=C1CC(c2ccccc2)NN1 (stereo not drawn),,inactive: -2.79%
COC(=O)C(N)Cc1ccc(O)c(O)c1 (stereo not drawn),,inactive: 21.5%
CC(C)c1ccc2c(c1)c(SC(C)(C)C)c(CC(C)(C)C(=O)O)n2Cc1ccc(Cl)cc1,,inactive: 11.4%
O=S(=O)(c1ccc(OCC(O)CN2CCN(c3ccccc3)CC2)cc1)N1CCOCC1 (stereo not drawn),active: 7.08 µM,
Cc1nc2ncnn2c(C)c1CCC(=O)NCCCN1CCN(c2cccc(Cl)c2)CC1,"inconclusive [activator, full curve]",
Brc1ccc(CN2CCN(c3ccccn3)CC2)s1,active: 3.55 µM,
O=C(CCN1CCN(c2ccccc2)CC1)N/N=C/c1ccccc1OC(F)F,"inconclusive [activator, full curve]",
Cc1cc(NC(=O)COc2coc(CN3CCN(c4ccccc4F)CC3)cc2=O)no1,"inconclusive [activator, full curve]",
CCOC(=O)C1(C(F)(F)F)N=C(C(F)(F)F)Nc2cc(C)c(C)cc21 (stereo not drawn),,inactive: -6.01%
COc1ccc(-c2cn(Cc3ccc4c(c3)C(=O)c3ccccc3C4=O)nn2)cc1,active: 35.5 µM,
COc1ccccc1NC(=O)c1ccc(NC(=O)CN2CCN(C(=O)c3ccco3)CC2)cc1,,inactive: 19.9%
COc1cccc(CN2CCC(C(=O)N3CCN(c4ccccc4F)CC3)CC2)c1OC,,inactive: 7.88%

Structure (SMILES),Potency,activation
CCc1ccccc1NC(=S)N1CCN(c2ccccn2)CC1,"inconclusive [activator, full curve, poor fit]",
Cc1nnc(NC(=O)CCC(=O)N2CCN(CCOc3cccc4ccccc34)CC2)s1,"inconclusive [activator, full curve, poor fit]",
Cc1cc(Br)ccc1NC(=O)CN(C)C(=O)c1ccc(-n2cncn2)c([N+](=O)[O-])c1,,inactive: 1.25%
Cc1ccccc1NC(=O)NCCCN1CCN(c2ccccc2)CC1,"inconclusive [activator, full curve]",
COc1ccc(CN2CCN(c3ncccn3)CC2)c(OC)c1,"inconclusive [activator, full curve]",
O=C(NCCCn1ccnc1)C(=O)NCC(c1ccco1)N1CCN(c2ccccc2)CC1 (stereo not drawn),"inconclusive [activator, full curve]",
c1ccc(CCN=C2CCCc3c2[nH]c2ccccc32)cc1,"inconclusive [activator, single point]",
CC(C)OCCCn1c(=O)c2ccccc2n2c(CCC(=O)N3CCN(c4ccccn4)CC3)nnc12,,inactive: 4.47%
CC(=O)c1ccc(NC(=O)CN2CCN(c3ccccc3)CC2)cc1,"inconclusive [activator, full curve]",
O=C(CCN1CCN(c2ccccc2F)CC1)Nc1ccc2c(c1)OCO2,"inconclusive [activator, partial curve, poor fit]",
O=C(c1ccco1)N1CCN(CCCCOc2ccc(F)cc2)CC1,"inconclusive [activator, full curve]",
CCCc1nc2ccc(NC(C)=O)cc2c(=O)n1Cc1ccccc1Cl,,inactive: 0.024%
COc1ccc(-c2nc(CN3CCN(C(=O)c4ccco4)CC3)c(C)o2)c(OC)c1C,"inconclusive [activator, full curve]",
COc1ccccc1NC(=O)CN1CCN(c2ccccn2)CC1,"inconclusive [activator, full curve]",
O=C(COc1ccccc1)NCCS(=O)(=O)N1CCN(c2ccccc2)CC1,"inconclusive [activator, full curve]",
Cc1ccc(-c2c(C(=O)N/N=C/c3ccoc3)nnn2-c2nonc2N)cc1,,inactive: -3.84%
CCc1ccc(OCC(O)CN2CCN(c3ccccc3)CC2)cc1 (stereo not drawn),"inconclusive [activator, partial curve]",
Oc1ccc(N2CCN(Cc3ccc(OCCCN4CCCCC4)cc3)CC2)cc1,active: 4.47 µM,
O=C(Nc1cccc(Cl)c1)c1ccc(F)c(S(=O)(=O)NCc2ccc3c(c2)OCO3)c1,,inactive: 4.37%
O=C(CNC(=O)c1ccccc1)NCC(=O)OCC(=O)c1ccc(F)cc1,,inactive: -3.6%
COc1cccc(N2CCN(Cc3nc(N)nc(N4CCCc5ccccc54)n3)CC2)c1,"inconclusive [activator, partial curve]",
O=C(c1ccc(OCC2CCCO2)cc1)N1CCN(S(=O)(=O)c2cccc(F)c2)CC1 (stereo not drawn),,inactive: 1.89%
CC(=O)C[C@@H](O)CC(=O)[C@H]1OC(=O)CCCCCCc2ccccc21,,inactive: -0.828%
Cc1ccccc1NC(=O)CN1CCc2ccccc2C1,"inconclusive [activator, partial curve]",
